Where “and” joins values, the source holds several entries; their conditions need not be identical. Identical values can stand only once.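 Cells were grown in 96-well plates and exposed to each compound for 48 hours at five concentrations; endpoints were interpolated linearly between bracketing concentrations, or set to the highest concentration if not reached. At the GI50, growth is halved. TGI: total growth inhibition.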
Tested on: NCI-H322M lung
Test: NCI anticancer screen, dose series, 48 h

SMILES: CC1(C)CC(=O)c2c(-c3ccc(Cl)cc3)c(C#N)c(=S)n(C3OC(CO)C(O)C(O)C3O)c2C1 (stereo not given)
- TGI: > 100 µM

SMILES: O=c1cccccc1[O-].O=c1cccccc1[O-].O=c1cccccc1[O-].[Nd+3]
- TGI: > 100 µM

SMILES: N#Cc1c(C#N)c(SSc2c(C#N)c(C#N)c(N)n2-c2cccc3ccccc23)n(-c2cccc3ccccc23)c1N
- TGI: > 55.4 µM

SMILES: NC(=O)c1c[nH]c2ncnc(N)c12
- GI50: 43.9 µM
- TGI: > 100 µM

SMILES: Cc1c(O)cccc1C(=O)N[C@@H](CSc1ccccc1)[C@H](O)CN1C[C@H]2CCCC[C@H]2C[C@H]1C(=O)NC(C)(C)C
- GI50: 3.95 µM and 10.1 µM
- TGI: 12.1 µM and > 73 µM

SMILES: CCCCCOC(=O)Nc1nc(=O)n(C2OC(C)C(O)C2O)cc1F (stereo not given)
- GI50: > 10000 µM
- TGI: > 10000 µM

SMILES: CC(C)CCNC(=O)c1ccc(CNC(=O)/C=C/c2ccc3ccccc3c2)cc1
- TGI: > 100 µM

SMILES: N#Cc1ccc(C2OCC3CC=CCC3CO2)cc1 (stereo not given)
- TGI: > 100 µM

SMILES: O=C1c2cc3c(cc2[C@@H]2C(O)[C@H]4O[C@H]4C4CCN1C42)OCO3 (stereo not given in full)
- TGI: > 37.5 µM

SMILES: COc1ccc(OC)c(C2=C(c3cn(C)c4ccccc34)C(=O)NC2=O)c1
- GI50: > 25 µM
- TGI: > 25 µM

SMILES: C=C(C(=O)c1ccccc1)C(NC(C)(C)C)c1ccccc1 (stereo not given)
- GI50: 5.22 µM
- TGI: 18.5 µM

SMILES: CCCCCCCCCCCCCCCC(=O)NS(=O)(=O)OC[C@H]1O[C@@H](n2cnc3c(N)ncnc32)[C@H](O)[C@@H]1O
- GI50: < 0.0244 µM

SMILES: Cc1cc(O)ccc1C1(c2ccc(O)cc2C)OC(=O)c2ccccc21
- GI50: 18.5 µM
- TGI: 33.5 µM

SMILES: O=C(O)CN1C(=O)OC(c2ccccc2)C1=O (stereo not given)
- TGI: > 100 µM

SMILES: Cc1nc2ccc(-n3ncc(C(=O)c4cc5ccccc5[nH]4)c3N)cc2[nH]1
- GI50: 30.9 µM
- TGI: > 100 µM

SMILES: COc1ccccc1/C=C1\CCC(Cc2ccccc2)(CN(C)C)C1=O (stereo not given)
- TGI: > 67.1 µM

SMILES: CCCCCN1C(=O)C(Cc2ccccc2)N=C(c2ccc(O)cc2)c2cc(Cl)ccc21 (stereo not given)
- TGI: 30.4 µM

SMILES: CCCCCCCCCCCCC(O)C1CCC(C(O)CCCCC(O)CCCCCC2CC(CC(C)=O)C(=O)O2)O1 (stereo not given)
- GI50: 3.63 µM
- TGI: 22.6 µM

SMILES: O=c1[nH]c(=O)n([C@H]2C[C@@H](CO)[C@@H](O)C2)cc1I
- TGI: > 100 µM

SMILES: Cc1nn(CNc2ccc(F)c(Cl)c2)c(=S)n1/N=C/c1ccc(-c2ccc(Cl)cc2Cl)o1
- TGI: 40.6 µM

SMILES: CN(C)CCC(=O)[C@@]1(O)CC[C@H]2[C@@H]3CC=C4C[C@@H](O)CC[C@]4(C)[C@H]3CC[C@@]21C
- TGI: 79 µM

SMILES: COP12(OC)NC(=O)OC1(C(F)(F)F)c1ccccc1O2 (stereo not given)
- TGI: > 100 µM

SMILES: O=C(Cc1cc(O)ccc1O)NO
- GI50: > 100 µM
- TGI: > 100 µM

SMILES: Nc1c(S(=O)(=O)O)cc(S(=O)(=O)O)c2ccc(N=Nc3ccccc3)c(O)c12
- TGI: > 100 µM

SMILES: O=C1CC(n2ccnc2)c2c(Cl)sc(Cl)c21 (stereo not given)
- TGI: 39.9 µM

SMILES: CN1N=C(c2ccncc2)OC1c1cccc(F)c1 (stereo not given)
- TGI: > 100 µM

SMILES: CSC1=CC(=O)c2ccccc2C1=O
- GI50: 17.4 µM
- TGI: 38.1 µM

SMILES: CC1(C=O)CC(CCc2ccccc2)NC1Cc1ccc(O)cc1 (stereo not given)
- TGI: 32.5 µM

SMILES: Cn1c2ncccc2n2c(=O)cc(O)cc12
- TGI: > 100 µM

SMILES: COc1ccc(C[C@H]2COC(=O)[C@@H]2Cc2ccc(Br)cc2)cc1OC
- TGI: > 100 µM

SMILES: CN1C(=O)C(N=Nc2ccc([N+](=O)[O-])cc2)SC1=S (stereo not given)
- GI50: 1.67 µM and 14.7 µM

SMILES: CN1C(=O)C(=Cc2ccc(Br)cc2)C(=O)N(C)C1=O
- TGI: > 100 µM

SMILES: CC(C)=CCC/C(C)=C/Cc1c2c(c3oc(-c4ccc(O)c(O)c4)c(O)c(=O)c3c1O)C=CC(C)(C)O2
- TGI: 5.77 µM

SMILES: CCOC(=O)c1sc2nc(SC)nc3c2c1NC(=O)CN3c1ccc(F)cc1
- TGI: > 100 µM

SMILES: CCCCCCC(=O)OC[n+]1ccc(-c2c(COC(=O)NC(C)C)c(COC(=O)NC(C)C)c3n2CCC3)cc1
- TGI: > 100 µM

SMILES: Cc1cc2c(cc1Cl)SC(NNCCO)=NS2(=O)=O
- TGI: > 100 µM

SMILES: COc1ccc2nc3c4c(nccc4c2c1)-c1ncccc1C3=O
- TGI: 0.473 µM

SMILES: O=c1[nH][nH]c(=O)n1Cc1ccccc1
- TGI: > 100 µM

SMILES: Nc1ccc(Oc2ccc(C34CC5C6CC7(c8ccc(Oc9ccc(N)cc9)cc8)CC5C(C3)C(C7)C6C4)cc2)cc1
- TGI: > 100 µM

SMILES: C[C@@H](NC1CCCC[C@@H]1O)c1ccccc1 (stereo not given in full)
- TGI: > 100 µM

SMILES: COc1ccc(COCC[C@H](C)OC2OC(CO[Si](C)(C)C(C)(C)C)C(O)C(O)C2O)cc1 (stereo not given in full)
- TGI: > 100 µM

SMILES: Cc1ccc(C2=NN(c3ccc(S(=O)(=O)NC(=O)NCc4ccccc4)cc3)C(c3ccc(N(C)C)cc3)C2)c(C)c1 (stereo not given)
- GI50: 4.86 µM
- TGI: 32.4 µM

SMILES: C=C1N(C)c2ccc(S(=O)(=O)c3ccc4c(c3)C(C)(C)C(=C)N4C)cc2C1(C)C
- TGI: > 100 µM

SMILES: CS(=O)(=O)N1CCC(Nc2ncc(C(=O)c3c(F)cccc3F)c(N)n2)CC1
- GI50: 15.7 µM
- TGI: > 25 µM

SMILES: Cc1n[nH]c(=O)n1/N=C/c1ccco1
- TGI: > 100 µM

SMILES: O=C(c1ccccc1)c1ccc(N2C(=O)/C(=C/c3ccccc3S)N=C2c2ccccc2)c(N2C(=O)/C(=C/c3ccccc3S)N=C2c2ccccc2)c1
- TGI: > 100 µM

SMILES: CSC12c3cc(C)n(-c4ccc(I)cc4)c3CC(C)(C)CN1C(=O)C2Oc1ccccc1 (stereo not given)
- TGI: > 100 µM

SMILES: CCOC(=O)C(C(=O)OCC)c1cc(-c2cc3ccccc3o2)oc(=O)c1C#N
- TGI: > 100 µM

SMILES: NC(CCc1nc(-c2cccc([N+](=O)[O-])c2)cs1)C(=O)O (stereo not given)
- TGI: > 100 µM

SMILES: CNC(=O)/C=C/C1=CN2C(=O)c3ccc(C)c(O)c3NC(OC)C2C1 (stereo not given)
- TGI: 0.307 µM

SMILES: Cc1[nH]c(C(=O)Nc2cccc(OC3CCNCC3)c2)c(Cl)c1Cl
- GI50: 1.7 µM
- TGI: 3.3 µM

SMILES: COC(=O)c1cc(O)ccc1O
- TGI: > 100 µM

SMILES: C/C(=C\[Si](C)(C)c1ccco1)C(C)(O)[C@H](C)O (stereo not given in full)
- TGI: > 100 µM

SMILES: COc1ccc(N=Nc2ccc(O)c(=O)cc2)cc1
- GI50: 3.18 µM
- TGI: > 100 µM

SMILES: CO/N=C(/C)COc1ccc2c(c1)oc(=O)c1cc(OC)ccc12
- GI50: > 100 µM
- TGI: > 100 µM

SMILES: COc1ccc2[nH]c(C(=O)OCc3ccc4c(Br)cc(Br)c(O)c4n3)cc2c1
- GI50: 1.56 µM
- TGI: 3.05 µM

SMILES: Cc1ccccc1N(CCC#N)C1=NN(C(=O)CC(=O)Nc2ccc(Cl)cc2)C(c2ccccc2)C1 (stereo not given)
- TGI: > 100 µM

SMILES: COC(=O)[C@]12CC[C@H]3CN(S(=O)(=O)c4ccc(C)cc4)[C@H]([C@H]31)[C@H](c1ccco1)N2S(=O)(=O)c1ccc(C)cc1
- TGI: > 100 µM

SMILES: c1ccc2cc(C3NCCc4[nH]cnc43)ccc2c1 (stereo not given)
- TGI: > 100 µM

SMILES: COc1cccc(C(=O)NNc2nc(Cl)nc(N3CCN(C(c4ccccc4)c4ccccc4)CC3)n2)c1
- GI50: 3.74 µM
- TGI: 17.4 µM

SMILES: Cc1nc(C)c(N2CCN(Cc3ccccc3)CC2)c(=O)[nH]1
- TGI: > 100 µM

SMILES: Cc1cn(CC(=S)NCCc2c[nH]c3ccccc23)c(=O)[nH]c1=O
- TGI: > 100 µM

SMILES: [O-]c1c2c(nn1-c1ccc(F)cc1)c1ccccc1c[n+]2Cc1ccccc1
- TGI: > 100 µM

SMILES: CCOC(=O)/C=C(/C(=O)OCC)n1ccc(=O)n(Cc2cn(CCCCOC(C)=O)nn2)c1=O
- TGI: > 100 µM

SMILES: Clc1nc(Cl)c2ncn(-c3ccccc3)c2n1
- GI50: 3.22 µM
- TGI: 12.8 µM

SMILES: COc1cc(C2C(C(=O)NCc3ccccc3)=C(C)NC(C)=C2C(=O)NCc2ccccc2)ccc1O
- TGI: > 100 µM

SMILES: CC1(C)N=C(N)N=C(N)N1c1ccc(OCC(=O)Nc2ccc(S(=O)(=O)F)cc2Cl)c(Cl)c1
- GI50: 6.65 µM
- TGI: > 100 µM

SMILES: CS(=O)(=O)Nc1cc(-c2ccc3ncc(C#N)c(Nc4ccc(F)c(Cl)c4)c3c2)cnc1Cl
- GI50: 0.321 µM
- TGI: 1.58 µM

SMILES: NS(=O)(=O)c1ccc(N=Nc2c(O)[nH]c3ccc(C(=O)NCCCn4ccnc4)cc23)cc1
- GI50: > 25 µM
- TGI: > 25 µM

Source: PubChem BioAssay (NCI)
